Consider 42 sequences from publication PMC7819943, “Rice protein-binding microarrays: a tool to detect cis-acting elements near promoter regions in rice”.

Some of the results follow.

This experiment has as its target T1, OsWOX13 (Oryza sativa, UniProt Q5QMM3 1-267).
T1 sequence: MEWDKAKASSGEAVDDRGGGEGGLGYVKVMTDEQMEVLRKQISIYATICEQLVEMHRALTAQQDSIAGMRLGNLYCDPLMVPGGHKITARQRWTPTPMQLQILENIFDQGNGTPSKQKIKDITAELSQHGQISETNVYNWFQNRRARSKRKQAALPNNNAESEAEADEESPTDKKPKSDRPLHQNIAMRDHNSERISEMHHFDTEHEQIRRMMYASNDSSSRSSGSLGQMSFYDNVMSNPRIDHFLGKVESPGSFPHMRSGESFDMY
The experiment in a line: protein-binding microarray (RPBM); PBS, 2% BSA, 51.3 ng/ul salmon testes DNA, 50 uM zinc acetate, 200 nM TF, 25 C, 1 h; high values mean tight binding. To be noted: protein: recombinant; tags: N-terminal polyhistidine and DsRed monomer fusion (pET32a); label: CyDye5-dUTP incorporated in the synthesized complementary strand; 3' TTTTT single-stranded linker to array surface; dsDNA, one strand shown. In outline:
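Binding signal is defined as the fluorescence intensity of each feature in arbitrary units, read on an Axon 4000B scanner. Transcription factors with N-terminal polyhistidine and DsRed fusions came from E. coli BL21-CodonPlus and were purified on Ni–NTA. They were incubated at 200 nM for 1 h at 25 °C on a custom Agilent array that had been made double-stranded with Cy5-dUTP, with 50 µM zinc acetate present, and the array was washed.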
Regarding “CCTGATGGATTCAGACTTCAAGTCTGCGACCAGTGTAAAACGGAGTCACCTAGTGCAG”, the binding signal was 9800 fluorescence intensity (a.u.). Regarding “CGTCTAATTAAGCGTAGACGATCTGATTCGCTAGCTCGCACGGAGTCACCTAGTGCAG”, the binding signal is 10600 fluorescence intensity (a.u.).

Regarding “CATATATGAGAATTAGGAAGTAATTACTTACCTACTAGGACGGAGTCACCTAGTGCAG”, the binding signal was 4260 fluorescence intensity (a.u.). For the sequence “GTAGATTAATAGCAAAATAAATTATAGATTTTACCTGCACCGGAGTCACCTAGTGCAG”, the binding signal is 25800 fluorescence intensity (a.u.).

As to “CTCCTTGACTAATGTTGCGTTCTCTAATCTCCCTCTGACTCGGAGTCACCTAGTGCAG”, the binding signal was 3360 fluorescence intensity (a.u.). With “GCCCTAAATAAAATTGGTAGATCTCAATTAGTTCTACAACCGGAGTCACCTAGTGCAG”, the binding signal was 5020 fluorescence intensity (a.u.). On to “ATAATTGGGCCCATCCTGTCTCCTTCCTTCCTCTCTACCCCGGAGTCACCTAGTGCAG”, for which the binding signal was 13300 fluorescence intensity (a.u.). For “TCTTCATTAATTGAAGTTGGGACTTTAATAATCTTGTAATCGGAGTCACCTAGTGCAG”, the binding signal is 23300 fluorescence intensity (a.u.). As for “TGTAACTATTATATAAATTGGCTATTAAGTTTGACTATAGCGGAGTCACCTAGTGCAG”, the figure is 17800 fluorescence intensity (a.u.).

Consider “TTCTTAATGAACAGGTTGATTTGGAACTCATTGCGAAGGACGGAGTCACCTAGTGCAG”, for which the binding signal was 23500 fluorescence intensity (a.u.). For “GAAGATTGAAACATACGCACGCTGAAACGCCGTAACTCTGCGGAGTCACCTAGTGCAG”, the binding signal was 27700 fluorescence intensity (a.u.). On to “CATTTAATTCATTGTTATATATATATATATATAGACACACCGGAGTCACCTAGTGCAG”, for which the binding signal is 3920 fluorescence intensity (a.u.). For the sequence “CATAAAATAACAACTAATTTAACTCAAACCCCTAGCAATTCGGAGTCACCTAGTGCAG”, the binding signal was 3760 fluorescence intensity (a.u.). For “CTTATATATATTCAATTACTGAGCAGCGCAACCGCGGAGACGGAGTCACCTAGTGCAG”, the binding signal was 4040 fluorescence intensity (a.u.). Turning to “AGAGATTGAACAGAGCTATGAAGAATTTTATGAAGATGTGCGGAGTCACCTAGTGCAG”, the binding signal is 7740 fluorescence intensity (a.u.). On to “TACCATGATTTGTATTGTGCGATATATTGAGTGGGGCCATCGGAGTCACCTAGTGCAG”, for which the binding signal was 28500 fluorescence intensity (a.u.). To “ATCGTTTGATTTATTGTTAAATATACTTTCATGTACACATCGGAGTCACCTAGTGCAG” belongs 17900 fluorescence intensity (a.u.); to “AGCGAAATTGCTAGTGATTCCAGCCATGGATCCACTCACCCGGAGTCACCTAGTGCAG”, 10000 fluorescence intensity (a.u.). As for “GCTGATTTCTGTAATTTCTTACGTGGGTCCAACAGGTGATCGGAGTCACCTAGTGCAG”, the binding signal is 31800 fluorescence intensity (a.u.). For “TGGTTTTACTCATTCATCATTCAATCATGTCACGTATCCACGGAGTCACCTAGTGCAG”, the binding signal is 5010 fluorescence intensity (a.u.). Take “TGCTCTTGACGATCTTGGATTGATCATCTATGCATTTCAACGGAGTCACCTAGTGCAG”: the binding signal is 5900 fluorescence intensity (a.u.). To “ACCAGGCAATCACTTGAGCCATACACAATCCATTCCATGACGGAGTCACCTAGTGCAG” belongs 4700 fluorescence intensity (a.u.); to “AACAACCGGTAATTACTCCCTCGGTCCCTCAACATTTGACCGGAGTCACCTAGTGCAG”, 4800 fluorescence intensity (a.u.). With “AAACACACACACAAAGATGATTGCTCAACACCTATAAATGCGGAGTCACCTAGTGCAG”, the binding signal is 4280 fluorescence intensity (a.u.). With “CTCTAAACTTTACATGTCAATCCTCCAATTCAAATGGCCCCGGAGTCACCTAGTGCAG”, the binding signal is 5510 fluorescence intensity (a.u.). For “GTGGGTTTAATTTGTTGTCCCTGATCAAATCAAAGCTGCCCGGAGTCACCTAGTGCAG”, the binding signal was 6980 fluorescence intensity (a.u.).

As for “AGTGGCTGCCGAATTAATTGGATCGCGTGCTGCGTGCGTGCGGAGTCACCTAGTGCAG”, the binding signal is 5740 fluorescence intensity (a.u.). As for “ACTCTAATGAACACAAACTTTATATCAAAATTTTAGCCCTCGGAGTCACCTAGTGCAG”, the figure is 4500 fluorescence intensity (a.u.); as for “GGTAGAAATAAGGATTGATTGAGATTCACCTACCTTTTCTCGGAGTCACCTAGTGCAG”, 37500 fluorescence intensity (a.u.).

“GGATTTGATTTGGAAGGATTTGGATTCGGAAATGAGCTCGCGGAGTCACCTAGTGCAG”: the binding signal is 16700 fluorescence intensity (a.u.). As to “AGCAGTACAATCATTGAAGGAATGTTCATGTCATTTCATCCGGAGTCACCTAGTGCAG”, the binding signal was 5180 fluorescence intensity (a.u.). For the sequence “ACTGATTGCTACCGATCATTGCTAGCTGTTGAATTGAACCCGGAGTCACCTAGTGCAG”, the binding signal is 46100 fluorescence intensity (a.u.).

With “GCACTTAATCATCTAATTATTACGATGAGTCATTTATTGACGGAGTCACCTAGTGCAG”, the binding signal is 11900 fluorescence intensity (a.u.). With “TTCTAATTGTGGCTTGTCTGGATCATTACCATCTTCCATACGGAGTCACCTAGTGCAG”, the binding signal is 5370 fluorescence intensity (a.u.). As for “TTATGTTGTCTCAATTAATTACATAGTTATAAACAGAAATCGGAGTCACCTAGTGCAG”, the figure is 3570 fluorescence intensity (a.u.); as for “ACGTTACGTATTATGATTGGCTCAGCCTTTACTGCCTTGGCGGAGTCACCTAGTGCAG”, 33300 fluorescence intensity (a.u.); as for “AATTTAAAATAGTTAATACTCAATTAATATGAGCTAATGGCGGAGTCACCTAGTGCAG”, 3850 fluorescence intensity (a.u.). For “GCCCTTGATTTCTGACTAGATTTGTGTTATTCTACTTACACGGAGTCACCTAGTGCAG”, the binding signal is 27200 fluorescence intensity (a.u.).

For the sequence “TAGAGATTAGATTAGGATTAGAGAGGGATGAGCATGCCATCGGAGTCACCTAGTGCAG”, the binding signal was 14000 fluorescence intensity (a.u.). Turning to “CTAAATTAATACATGCTAAAATTTGGAGAAAGAGCGTGTTCGGAGTCACCTAGTGCAG”, the binding signal was 24100 fluorescence intensity (a.u.). Consider “AATTTTAATCCATCAATGATCATCCATGTGCACATAAATACGGAGTCACCTAGTGCAG”, for which the binding signal is 5210 fluorescence intensity (a.u.). For the sequence “CCATATGTACTAATTCTATAATTGAAAAGGAAGCAGGATGCGGAGTCACCTAGTGCAG”, the binding signal is 8630 fluorescence intensity (a.u.).
